Experimental data reported in patent US20150366852A1, “Prevention of Obesity in Antipsychotic, Antidepressant and Antiepileptic Medication” (N-Gene Research Laboratories, Inc., priority 2006, published 2015).

Tested on: female Wistar rats
Format: in vivo
Conditions: compound alone, 21 days

Cc1nc2n(c(=O)c1CCN1CCC(c3noc4cc(F)ccc34)CC1)CCCC2 [Risperidone, 3-[2-[4-(6-fluoro-1,2-benzisoxazol-3-yl)-1-piperidinyl]ethyl]-6,7,8,9-tetrahydro-2-methyl-4H-pyrido[1,2-a]pyrimidin-4-one]
Body weight gain relative to the control group (in words): increased body weight gain relative to the control group
